# Among all 310,000 compounds or so, about 2,200 (0.71%) showed an effect of 50% or more. Effects have a minus sign here. The list shows a part of the results.
# Target: human ether-à-go-go-related gene (hERG) potassium channel (human, UniProt Q12809)
# Test: primary screen, population patch clamp on CHO cells stably expressing hERG
# Sequence of human ether-à-go-go-related gene (hERG) potassium channel (Q12809 whole entry, looked up): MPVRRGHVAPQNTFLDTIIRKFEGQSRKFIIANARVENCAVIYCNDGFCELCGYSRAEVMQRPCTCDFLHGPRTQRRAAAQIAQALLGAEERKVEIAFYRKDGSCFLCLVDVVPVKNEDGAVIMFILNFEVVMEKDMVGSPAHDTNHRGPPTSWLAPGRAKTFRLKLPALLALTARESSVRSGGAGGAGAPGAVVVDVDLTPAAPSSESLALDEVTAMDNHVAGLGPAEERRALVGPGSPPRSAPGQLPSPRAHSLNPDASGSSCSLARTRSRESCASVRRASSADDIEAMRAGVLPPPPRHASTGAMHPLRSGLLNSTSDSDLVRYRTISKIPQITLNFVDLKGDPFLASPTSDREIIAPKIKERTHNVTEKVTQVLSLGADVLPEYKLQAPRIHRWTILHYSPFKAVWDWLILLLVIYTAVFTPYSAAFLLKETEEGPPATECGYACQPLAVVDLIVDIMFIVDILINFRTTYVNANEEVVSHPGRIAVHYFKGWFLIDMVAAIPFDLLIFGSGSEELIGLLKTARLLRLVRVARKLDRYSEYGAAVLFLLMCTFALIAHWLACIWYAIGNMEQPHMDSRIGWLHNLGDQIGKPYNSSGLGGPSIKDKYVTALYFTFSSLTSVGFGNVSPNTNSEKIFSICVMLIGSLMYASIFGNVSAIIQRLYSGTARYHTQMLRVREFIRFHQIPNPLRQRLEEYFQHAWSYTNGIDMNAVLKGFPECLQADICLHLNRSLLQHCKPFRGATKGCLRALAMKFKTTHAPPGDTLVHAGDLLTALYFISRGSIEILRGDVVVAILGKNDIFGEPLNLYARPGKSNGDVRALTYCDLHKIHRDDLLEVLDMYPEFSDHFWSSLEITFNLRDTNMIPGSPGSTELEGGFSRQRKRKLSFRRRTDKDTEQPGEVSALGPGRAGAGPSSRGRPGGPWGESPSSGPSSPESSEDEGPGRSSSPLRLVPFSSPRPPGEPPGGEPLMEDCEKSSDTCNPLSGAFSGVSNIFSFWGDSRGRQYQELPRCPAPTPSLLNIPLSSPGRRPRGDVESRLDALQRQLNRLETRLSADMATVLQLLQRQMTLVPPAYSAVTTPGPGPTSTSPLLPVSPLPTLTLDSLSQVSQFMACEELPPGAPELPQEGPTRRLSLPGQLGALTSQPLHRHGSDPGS
row,Structure (SMILES),"hERG current change (%, negative = inhibition) at 1uM [%]"
1,Oc1ccc(-c2cn3cc(C(F)(F)F)ccc3n2)cc1,0.186
2,O=C(CSc1ncn(-c2ccccc2)n1)N1CCc2ccccc21,1.39
3,O=C(CNC(=O)c1ccc(OC(F)F)cc1)Nc1cccc(S(=O)(=O)N2CCCC2)c1,-4.96
4,O=C(COC(=O)c1cnccn1)N=c1sccn1Cc1ccccc1Cl,12.8
5,CC1CCN(CC(=O)Nc2cccc(Cl)c2)CC1,-0.572
6,COc1ccc(/C=C2\CCc3ccccc3C2=O)c(OC)c1OC,15.7
7,CCCN(C(=O)C(=O)Nc1ccc2nc3n(c(=O)c2c1)CCCCC3)c1ccc(OCC)cc1,9.7
8,O=C(CCN1CCC(c2ccc(Cl)s2)=N1)c1ccc(Cl)s1,10.9
9,C/C(N)=C(/C#N)C(=O)COc1ncnc2ccccc12,7.75
10,O=c1c2cc(NC(=S)NC3CCCC3)ccc2nc2n1CCCCC2,2.82
11,Cc1cc(NC(=O)CCC(=O)N(Cc2ccc(F)cc2)C(C(=O)NC2CCCC2)c2ccco2)no1 (centres unmarked),4.79
12,CCCN1CCN(C(=O)C2CCN(c3nnc(C)c4c(C)n(-c5ccc(C)cc5)nc34)CC2)CC1,8.84
13,CC(Sc1nnnn1-c1ccccc1)C(=O)Nc1ccc(N2CCN(C)CC2)cc1 (centres unmarked),7.21
14,COc1cccc(N2CCc3c(C)nc4ccc(Cl)cc4c32)c1,-48.5
15,COc1ccc(CN2CC(C(=O)NCCCN3CCCCC3)CC2=O)cc1 (centres unmarked),12.8
16,CC(C)(C)CN1CCN(Cc2nc(-c3ccc(F)cc3)cs2)CC1CCO (centres unmarked),-27.3
17,O=C(Nc1ccccc1Cl)c1ccc(=O)[nH]n1,11.2
18,COc1ccc(C(=O)/C=C/c2ccc(O)cc2)cc1,-0.784
19,Cc1ccc(C)c(-n2cc(CNC(C)Cn3cncn3)c(-c3ccccc3)n2)c1 (centres unmarked),-0.15
20,Cc1cccc(Cc2nnc(CCC(=O)N(C)C3CCOC3)o2)c1 (centres unmarked),17
21,Cc1ccc(S(=O)(=O)NNC(=O)NC23CC4CC(CC(C4)C2)C3)cc1,12.9
22,O=C(Nc1ccccc1)N1CCSc2ccccc21,-9.04
23,COc1ccc(S(=O)(=O)N(C)C)cc1NC(=O)Cc1cccs1,4.34

row,Structure (SMILES),"hERG current change (%, negative = inhibition) at 1uM [%]"
1,CCOC(=O)C1=C(O)/C(=C\c2sccc2C)N=C1C,20.8
2,Cc1ccccc1NC(=O)c1ccc(Nc2c([N+](=O)[O-])cc([N+](=O)[O-])c3ccccc23)cc1,19
3,Cc1c(C)n2c(SCC(=O)NCc3ccc4c(c3)OCO4)nnc2[nH]c1=O,11.6
4,N/C(COc1ccccc1)=N\NS(=O)(=O)c1ccccc1,9.58
5,NC1=NC(=O)/C(=C\c2ccsc2)S1,12
6,CC(C)=Cc1oc2ccc([N+](=O)[O-])cc2c1N1CC(C)OC(C)C1 (centres unmarked),10.8
7,Cc1cc(C)c(C#N)c(SC(F)F)n1,4.81
8,NS(=O)(=O)c1ccc(CNC(=O)CCSCCC(=O)NCc2ccc(S(N)(=O)=O)cc2)cc1,12.1
9,O=C(NCc1ccc(F)cc1)C1CCC(CNc2c(N3CCCCC3)c(=O)c2=O)CC1 (centres unmarked),12.9
10,CC(=O)O[C@H]1C(=O)[C@]2(C)[C@H]([C@H](OC(=O)c3ccccc3)[C@]3(O)C[C@H](OC(=O)[C@H](O)[C@@H](NC(=O)c4ccccc4)c4ccccc4)C(C)=C1C3(C)C)[C@]1(OC(C)=O)CO[C@@H]1C[C@@H]2O,8.41
11,COc1ccc(C(=O)c2cc([N+](=O)[O-])ccc2N2CCN(C)CC2)cc1,-25.5
12,CCOC(=O)N1CCN(C(=O)CSCC(=O)Nc2nc(-c3cccs3)cs2)CC1,-8.58
13,COc1cc(C(=O)OCC(=O)NC(=O)C2CCCCC2)ccc1OC(F)F,14.2
14,COc1ccc(NC(=S)Nc2ccccc2)c(OC)c1,10.5
15,COc1cccc(NC(=O)c2ccc(-n3cnnn3)cc2)c1,12
16,Cc1cccn2c(NC(=O)c3cccs3)c(-c3ccccc3)nc12,8.31
17,CN(C)CCCOc1nn(Cc2ccccc2)c2ccccc12.Cl,-1.26
18,CSc1nc(Nc2ccc(Cl)cc2)c(C#N)c(=O)[nH]1,14.3
19,COc1ccc(C(=O)Nc2cccc(/C=C/c3nc4ccccc4c(=O)[nH]3)c2)cc1,-1.15
20,CC(C)CC(NC(N)=O)C(=O)Nc1ccc2c(c1)OCO2 (centres unmarked),14.8
21,O=C(NC1CCCC1)C1CCC(=O)N1C1CCCC1 (centres unmarked),15.9
22,Cc1ccc2c(c1)C1(C)C(C(C)(C)N2C=O)C1(Cl)Cl (centres unmarked),13
23,CCCCC(c1nnnn1C1CCCC1)N1CCN(C2CCCCC2)CC1 (centres unmarked),-63.1

row,Structure (SMILES),"hERG current change (%, negative = inhibition) at 1uM [%]"
1,COc1ccc(S(N)(=O)=O)cc1C(=O)OCCCOc1ccc(F)cc1,-1.96
2,Nc1nc2c(s1)C(=O)CC(c1ccccc1)C2 (centres unmarked),9.16
3,CCCCC(=O)Nc1ccccc1C(=O)OCC(=O)c1ccc2c(c1)OCCO2,14.3
4,CCn1nc(NC(=O)c2cccnc2)c2cc3cccc(C)c3nc21,3.87
5,Cn1cccc1-c1cc(C(=O)N/N=C/c2ccc([N+](=O)[O-])cc2)[nH]n1,9.28
6,Cc1ccc(COc2coc(CN3CCN(C(=O)c4ccco4)CC3)cc2=O)cc1,-16.4
7,CCOc1ccc(CN(C)C(=O)CNC(=O)Cc2cccc3ccccc23)cc1,12.9
8,Cc1cc(C(=O)N/N=C/c2ccc(-c3cccc(Cl)c3Cl)o2)n[nH]1,11.3
9,COC(=O)c1c(C)n(-c2ccc(OC)cc2)c2ccc(O)cc12,11.2
10,Cc1cc(-n2nc(C)cc2C)nc(NS(=O)(=O)c2ccccc2)n1,14.2
11,NC(Cc1ccc(Oc2ccc(O)cc2)cc1)C(=O)O (centres unmarked),7.98
12,Cc1ccc(N(CC(=O)N2CCCC2)S(C)(=O)=O)cc1C,8.52
13,CC(C)c1ccc(/C=C2\SC(N3CCCC3)=NC2=O)cc1,15.7
14,COc1ccc(CCn2c(O)c(/C=N/N3CCOCC3)c(=O)[nH]c2=O)cc1OC,6.38
15,Cc1cc(NC(=O)CSc2nnc(-c3ccncc3)n2C)n(-c2ccccc2)n1,7.94
16,CCCOP(=O)(c1ccc(N(C)C)cc1)C(O)c1ccc(Cl)cc1Cl (centres unmarked),-0.951
17,CN1CCN(C(=O)c2ccc(Cl)cc2)CC1,15.1
18,O=S(N1CCc2ccccc21)C12CC3CC(CC(C3)C1)C2 (centres unmarked),3.28
19,CCOc1cc(C=O)ccc1OCC(N)=O,9.52
20,Cc1c(NC(=O)COc2cccc(Br)c2)c(=O)n(-c2ccccc2)n1C,4.12
21,Cn1cnc2c(NCc3ccco3)ncnc21,10.1
22,CC1CCCCN1S(=O)(=O)c1ccc2c(c1)CCN2C(=O)CCC(=O)O (centres unmarked),2.01
23,CC(=O)N1CCN(C(=O)CCc2nnc(CCCCc3ccccc3)o2)CC1,9.94

row,Structure (SMILES),"hERG current change (%, negative = inhibition) at 1uM [%]"
1,Cc1cc2ncn(C(=O)c3c(-c4c(Cl)cccc4Cl)noc3C)c2cc1C,6.72
2,CNS(=O)(=O)c1ccc(-c2ccc(C=C3C(=O)NC(=O)NC3=O)o2)cc1,12.6
3,O=C(CC1Sc2ccccc2NC1=O)OCC(=O)N1CCc2ccccc21 (centres unmarked),16.1
4,Cc1ccc(CNc2cnn(C34CC5CC(CC(C5)C3)C4)c(=O)c2Cl)cc1,2.06
5,CN(c1ccccc1C(=O)Nc1ccccc1-c1ccccc1)S(C)(=O)=O,16.6
6,CCOC(=O)c1c(C)oc2c1c(C=NCCC(=O)O)c(O)c1ccccc12,14.3
7,Nc1nnc(SCC(=O)N2CCN(c3ccccc3)CC2)s1,4.75
8,Cc1ccc(C(=O)CCC(=O)O)cc1,9.95
9,CC1(C)CC(=O)C=C(C(=O)NC2CCCc3c2cnn3-c2cc(F)cc(F)c2)O1 (centres unmarked),7.6
10,CCCCn1c(CCNC(=O)CCC)nc2ccccc21,5.72
11,CC(=O)NC(Cc1c[nH]c2ccccc12)C(=O)N1CCc2ccccc2C1 (centres unmarked),6.99
12,NNC(=O)C1CC1c1ccc(Cl)cc1 (centres unmarked),9.29
13,C[C@@H](C(=O)NC1CCN(Cc2ccccc2)CC1)N1C(=O)N2CCc3c([nH]c4ccccc34)[C@@]2(C)C1=O,-62.1
14,O=C(COC(=O)COc1cccc(C(F)(F)F)c1)NC1CCCC1,11.8
15,COc1ccccc1CNC(=O)COc1ccccc1C(=O)c1cnn(-c2ccccc2)c1,12.9
16,CN(C)S(=O)(=O)N1CCN(C(=O)N(c2ccccc2)c2ccccc2)CC1,18.3
17,COCCOC(=O)C1=C(C)Nc2cc(=O)[nH]c(=O)n2C1c1cccc([N+](=O)[O-])c1 (centres unmarked),19.9
18,Cc1ccc(CN2CCC(c3cc(-c4ccc(Cl)cc4)n[nH]3)CC2)cc1,-78.1
19,CC(NC(=O)Nc1ccccc1C(F)(F)F)C1CCCO1 (centres unmarked),18.4
20,CCOC(=O)c1cccc(N2C(=O)C3C(C2=O)C2C=CC3C23CC3)c1 (centres unmarked),8.16

# Source: publication PMC4336329 (PLoS ONE, 2015)
